Assay results taken from patent US6344453B1, “Insecticidal heterocyclic compounds” (priority 1989, dated 2002).

Tested on: Myzus persicae exhibiting resistance to organophosphorus and carbamate-series insecticides
Assay: Biotest against Myzus persicae resistant to organophosphorus and carbamate-series insecticides, spray on eggplant seedlings
Conditions: in Solanum melongena, 24 h, read-out: insect mortality

| SMILES | mortality at 500 ppm [%] |
| --- | --- |
| N#C/N=C1\COCCN1Cc1ccc(Cl)nc1 [Compound 2, 4-(2-chloro-5-pyridylmethyl)-3-cyanoiminomorpholine] | 100 |
| N#C/N=C1\COCCN1Cc1cnc(Cl)s1 [Compound 3] | 100 |
| CN1CN/C(=N\[N+](=O)[O-])N(Cc2ccc(Cl)nc2)C1 [Compound 11, 1-(2-chloro-5-pyridylmethyl)-5-methyl-2-nitroimino-hexahydro-1,3,5-triazine] | 100 |
| CN1CN/C(=N\[N+](=O)[O-])N(Cc2cnc(Cl)s2)C1 [Compound 12] | 100 |
| CON1CN/C(=N\[N+](=O)[O-])N(Cc2ccc(Cl)nc2)C1 [Compound 14, 1-(2-chloro-5-pyridylmethyl)-5-methoxy-2-nitroimino-hexahydro-1,3,5-triazine] | 100 |
| CC(C)N1CN/C(=N\[N+](=O)[O-])N(Cc2ccc(Cl)nc2)C1 [Compound 15] | 100 |
| CC(C)N1CN(Cc2ccc(Cl)nc2)C(=N[N+](=O)[O-])N(Cc2ccc(Cl)nc2)C1 [Compound 16] | 100 |
| CN1CN/C(=N\C#N)N(Cc2ccc(Cl)nc2)C1 [Compound 17, 1-(2-chloro-5-pyridylmethyl)-5-neath-2-cyanoimino-hexahydro-1,3,5-triazine] | 100 |
| CC(C)c1noc(C(C)N2CN(C)CN/C2=N\[N+](=O)[O-])n1 (stereo not drawn) [Compound 40] | 100 |
